B1: TEV protease; numbered along this chain (parent)
chain: MGESLFKGPRDYNPISSSICHLTNESDGHTTSLYGIGFGPFIITNKHLFRRNNGTLVVQSLHGVFKVKDTTTLQQHLVDGRDMIIIRMPKDFPPFPQKLKFREPQREERICLVTTNFQTKSMSSMVSDTSCTFPSGDGIFWKHWIQTKDGQCGSPLVSTRDGFIVGIHSASNFTNTNNYFTSVPKNFMELLTNQEAQQWVSGWRLNADSVLWGGHKVFMVKPEEPFQPVKEATQL

Some of the results follow. The full chains were built here from the parent and the listed change. Inactive controls read about 0.05.
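Note: Bxb1 expression induced with 0.2% (w/v) L-rhamnose at OD600 near 0.5, cultures sampled hourly, flipped fraction per protease–substrate barcode pair counted by paired-end Illumina sequencing.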

Variants of B1 are the subject of the test. Description: raw area under fraction-flipped curve 0-4 h after induction (AUC4h, not background-subtracted), DNA-recorder readout of cleavage of the substrate (dimensionless); higher = more cleavage of the substrate by the protease variant. To be noted: temperature: 34 °C; time window: 0-4 h after rhamnose induction. Here is the method:
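In vivo DNA recorder in E. coli TOP10(DE3) ΔrhaA at 34 °C. Each TEVp single-site mutant (parent TEVp 0) is paired with a single-site variant of the 7-mer TEVs (canonical ENLYFQ|S). The substrate sits between flexible linkers in a Bxb1-sfGFP-TEVs-SsrA fusion, so cleavage stabilises Bxb1 and speeds flipping of a recombination array, read by NGS. The value is the raw area under the fraction-flipped curve over 0-4 h after rhamnose induction (AUC4h), with ≥20 reads per time point. It is not background-subtracted; inactive controls average about 0.047.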
With MGESLFKGPRDYNPISSSICHLTNESDGHTTSLYGIGFGPFIITNKHLFRRNNGTLVVQSLHGVFKVKDTTTLQQHLVDGRDMIIIRMPKDFPPFPQKLKFREPQREERICLVTTNFQTKSMSSMVSDTSCKFPSGDGIFWKHWIQTKDGQCGSPLVSTRDGFIVGIHSASNFTNTNNYFTSVPKNFMELLTNQEAQQWVSGWRLNADSVLWGGHKVFMVKPEEPFQPVKEATQL [T132K], the “area with substrate ENCYFQS” value stood at 0.036.
As for MGESLFKGPRDYNPISSSICHLTNESDGHTTSLYGIGFGPFIITNKHLFRRNNGTLVVQSLHGVFKVKDTTTLQQHLVDLRDMIIIRMPKDFPPFPQKLKFREPQREERICLVTTNFQTKSMSSMVSDTSCTFPSGDGIFWKHWIQTKDGQCGSPLVSTRDGFIVGIHSASNFTNTNNYFTSVPKNFMELLTNQEAQQWVSGWRLNADSVLWGGHKVFMVKPEEPFQPVKEATQL [G80L], the “area with substrate ENAYFQS” value was 0.0743, the “area with substrate ENDYFQS” value came to 0.0606, the “area with substrate ENEYFQS” value was 0.0566 and the “area with substrate ENHYFQS” value is 0.0669. Besides, the “area with substrate ENIYFQS” value turned out to be 0.116, the “area with substrate ENMYFQS” value stood at 0.0766, the “area with substrate ENPYFQS” value came out at 0.053 and the “area with substrate ENQYFQS” value stood at 0.0591. In addition, the “area with substrate ENRYFQS” value is 0.0457, the “area with substrate ENSYFQS” value was found to be 0.0674, the “area with substrate ENVYFQS” value is 0.0692 and the “area with substrate ENWYFQS” value was 0.0558.
With MGESLFKGPRDYNPISSSICHLTNESDGHTTSLYGIGFGPFIITNKHLFRRNNGTLQVQSLHGVFKVKDTTTLQQHLVDGRDMIIIRMPKDFPPFPQKLKFREPQREERICLVTTNFQTKSMSSMVSDTSCTFPSGDGIFWKHWIQTKDGQCGSPLVSTRDGFIVGIHSASNFTNTNNYFTSVPKNFMELLTNQEAQQWVSGWRLNADSVLWGGHKVFMVKPEEPFQPVKEATQL [V57Q], the “area with substrate ENCYFQS” value worked out at 0.0662, the “area with substrate ENGYFQS” value was 0.0378, the “area with substrate ENNYFQS” value was found to be 0.0737 and the “area with substrate ENTYFQS” value turned out to be 0.0607.
Regarding MGESLFKGPRDYNPISSSICHLTNESDGHTTSLYGIGFGPFIITNKHLFRRNNGTLVVQSLHGVFKVKDTTTLQQHLVDGRDMIIIRMPKDFPPFPQKLKFREPQREERICLVTTNFQTKSMSSMVSDTSCTFPSGDGIFWKHWIQTKDYQCGSPLVSTRDGFIVGIHSASNFTNTNNYFTSVPKNFMELLTNQEAQQWVSGWRLNADSVLWGGHKVFMVKPEEPFQPVKEATQL [G150Y], the “area with substrate ENCYFQS” value worked out at 0.0691, the “area with substrate ENDYFQS” value is 0.0731, the “area with substrate ENEYFQS” value was found to be 0.0565 and the “area with substrate ENFYFQS” value was 0.0571. The “area with substrate ENGYFQS” value turned out to be 0.053, the “area with substrate ENNYFQS” value was determined as 0.0646, the “area with substrate ENPYFQS” value came out at 0.062 and the “area with substrate ENQYFQS” value turned out to be 0.0428. Moreover, the “area with substrate ENRYFQS” value was 0.0674, the “area with substrate ENSYFQS” value was 0.0323 and the “area with substrate ENVYFQS” value is 0.0648.
MGESLFKGPRDYNPISSSICHLTNESDGHTTSLYGIGFGPFIITNKHLFRRNNGTLVVQSLHGVFKVKDTTTLQQHLVDGRDMIIIRMPKDFPPFPQKLKFREPQREERICLVTTNFQTKSMSSMVSDTSCTFPSGDGIFWKHWIQTKDGQCGSPLVSTRGGFIVGIHSASNFTNTNNYFTSVPKNFMELLTNQEAQQWVSGWRLNADSVLWGGHKVFMVKPEEPFQPVKEATQL [D161G]: the “area with substrate ENAYFQS” value is 0.0598, the “area with substrate ENCYFQS” value stood at 0.0669, the “area with substrate ENDYFQS” value was found to be 0.0606 and the “area with substrate ENFYFQS” value is 0.0491. The “area with substrate ENGYFQS” value came out at 0.0722, the “area with substrate ENHYFQS” value was 0.0548, the “area with substrate ENIYFQS” value worked out at 0.0894 and the “area with substrate ENKYFQS” value came out at 0.057. Also, the “area with substrate ENQYFQS” value worked out at 0.0608, the “area with substrate ENSYFQS” value was determined as 0.0531, the “area with substrate ENTYFQS” value worked out at 0.0675 and the “area with substrate ENVYFQS” value turned out to be 0.0653. Besides, the “area with substrate ENYYFQS” value worked out at 0.0495.
MGESLFKGPRDYNPISSSICHLTNESDGHTTSLYGIGFGPFIITNKHLFRRNNGTLVVQSLHGVFKVKDTTTLQQHLVDGRDMIIIRMPKDFPPFPQKLKFREPQREERICLVTTNFQTKSMSSMVSDTSCTFPSGDGIFWKHWIQTKDGQCGSPLVSTRDGFIVGIHSASNFTNTNNYFTSVPKNFMELLTNQEAQQWVSGWRLNADSVLWGGHKVFMVKPEEPFQWVKEATQL [P228W]: the “area with substrate ENCYFQS” value was 0.0735, the “area with substrate ENPYFQS” value was determined as 0.0675, the “area with substrate ENRYFQS” value was found to be 0.058 and the “area with substrate ENSYFQS” value is 0.0656. In addition, the “area with substrate ENTYFQS” value was determined as 0.0508 and the “area with substrate ENVYFQS” value stood at 0.0573.
As for MGESLFKGPRDYNPISSSICHLTNESDGHTTSLYGIGFGPFIITNKHLFRRNNGTLVVQSLHGVFKVKDTTTLQQHLVDGRDMIIIRMPKDFPPFPQKLKFREPQREERICLVTTNFQTKSMSSMVSDTSCTFPSGDGIFWKHWIQTKDGQCGSPLVSTRDGMIVGIHSASNFTNTNNYFTSVPKNFMELLTNQEAQQWVSGWRLNADSVLWGGHKVFMVKPEEPFQPVKEATQL [F163M], the “area with substrate ENAYFQS” value was 0.0544, the “area with substrate ENEYFQS” value was determined as 0.0591, the “area with substrate ENFYFQS” value was determined as 0.0716 and the “area with substrate ENIYFQS” value was 0.101. For the same variant, the “area with substrate ENPYFQS” value was 0.0607, the “area with substrate ENSYFQS” value worked out at 0.0772, the “area with substrate ENTYFQS” value came out at 0.0535 and the “area with substrate ENWYFQS” value stood at 0.0401.
With MGESLFKGPRDYNPISSSICHLTNESDGHTTSLYGIGFGPFIITNKHLFRRNNGTLVVQSLHGVFKVKDTTTLQQHLVDGRDMIIIRMPKDFPPFPQKLKFREPQREERICLVTTNFQTKSMSSMVSDTSCTFPSGDGIFWKHWIQTKDGQCGSPLVSTRDGYIVGIHSASNFTNTNNYFTSVPKNFMELLTNQEAQQWVSGWRLNADSVLWGGHKVFMVKPEEPFQPVKEATQL [F163Y], the “area with substrate ENCYFQS” value was 0.0631, the “area with substrate ENDYFQS” value amounted to 0.0603, the “area with substrate ENFYFQS” value is 0.0558 and the “area with substrate ENNYFQS” value was found to be 0.0689. Also, the “area with substrate ENPYFQS” value is 0.0669, the “area with substrate ENRYFQS” value amounted to 0.082, the “area with substrate ENTYFQS” value is 0.0664 and the “area with substrate ENWYFQS” value amounted to 0.0458.
Take MGESLFKGPRDYNPISSSICHLTNESDGHTTSLYGIGFGPFIITNKHLFRRNNGTLVVQSLHGVFKVKDTTTLQQHLVDGRDMIIIRMPKDFPPFPQKLKFREPQREERICLVTTNFQTKSMSSMVSDTSCTFPSGDGIFWKHWIQTKDGQCGSPLVSTRDGFIVGIHSASNFTNTNNYFTSVPKNFMELLTNQEAQQWVSGWRLNADSVLSGGHKVFMVKPEEPFQPVKEATQL [W212S]: the “area with substrate ENCYFQS” value came out at 0.0603, the “area with substrate ENEYFQS” value is 0.0541, the “area with substrate ENFYFQS” value turned out to be 0.0755 and the “area with substrate ENHYFQS” value came to 0.0682. Further, the “area with substrate ENSYFQS” value was determined as 0.0851 and the “area with substrate ENTYFQS” value is 0.0543.
Regarding MGESLFKGPRDYNPISSSICHLTNESDGHTTSLYGIGFGPFIITNKHLFRRNNGTLVVQSLHGVFKVKDTTTLQQHLVDGRDMIIIRMPKDFPPFPQKLKFREPQREERICLVTQNFQTKSMSSMVSDTSCTFPSGDGIFWKHWIQTKDGQCGSPLVSTRDGFIVGIHSASNFTNTNNYFTSVPKNFMELLTNQEAQQWVSGWRLNADSVLWGGHKVFMVKPEEPFQPVKEATQL [T115Q], the “area with substrate ENAYFQS” value was 0.0621, the “area with substrate ENCYFQS” value was 0.0595, the “area with substrate ENDYFQS” value is 0.0547 and the “area with substrate ENEYFQS” value was determined as 0.0482. For the same variant, the “area with substrate ENFYFQS” value is 0.0592, the “area with substrate ENGYFQS” value was found to be 0.0576, the “area with substrate ENHYFQS” value was found to be 0.0541 and the “area with substrate ENKYFQS” value was 0.0588. Moreover, the “area with substrate ENPYFQS” value amounted to 0.0582, the “area with substrate ENQYFQS” value was 0.0735, the “area with substrate ENRYFQS” value worked out at 0.0279 and the “area with substrate ENSYFQS” value amounted to 0.0566. For the same variant, the “area with substrate ENTYFQS” value amounted to 0.0635, the “area with substrate ENVYFQS” value was found to be 0.0837 and the “area with substrate ENWYFQS” value was 0.0486.
Consider MGESLFKGPRDYNPISSSICHLTNESDGHTTSLYGIGFGPFIITNKHLFRRNNGTLVVQSLHGVFKVKDTTTLQQHLVDGRDMIIIRMPKDFPPFPQKLKFREPQREERICLVTTNFQTKSMSSMVSDTSCTFPSGDGIFWKHWIQTKDGQCGSPLVSTRDGFIVGIHSASNFTNTNNYFTFVPKNFMELLTNQEAQQWVSGWRLNADSVLWGGHKVFMVKPEEPFQPVKEATQL [S182F], for which the “area with substrate ENAYFQS” value was 0.0453, the “area with substrate ENCYFQS” value amounted to 0.0582, the “area with substrate ENEYFQS” value came out at 0.0541 and the “area with substrate ENNYFQS” value was found to be 0.0644. For the same variant, the “area with substrate ENPYFQS” value turned out to be 0.0571, the “area with substrate ENQYFQS” value is 0.0544, the “area with substrate ENTYFQS” value was 0.0481 and the “area with substrate ENVYFQS” value was 0.0662.

Values taken from the supplement of paper PMC12217912.
